Data reported in the supplement of paper PMC10369915.
Some of the results follow. No stated cut-off is given here; in the data, active = 3.2 or more and inactive = the rest. Most of these values are background signal.

These binders were tested against SHP2 C-SH2 domain E139D (assay: enrichment score (SH2-bound / input frequency) (ratio); bacterial display of known human phosphotyrosine sites (pTyr-Var adds point mutants) read by sequencing; higher = stronger binding; tyrosines were phosphorylated by kinases first). Conditions: peptide library: pTyr-Var.
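Further: displayed peptides selected on beads carrying the immobilized SH2 domain, with library peptides lacking any tyrosine serving as negative controls.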

Enrichment score, inactive:
AIGCEYSEINI [SIGLEC12_Y588_Y586C] 1.05
AIGFEYSEINI [SIGLEC12_Y588_YF] 0.849
KPAFSYTSSST [SIM1_Y356] 0.846
KTAFSYTSSST [SIM1_Y356_P352T] 0.977
GQSKGYRPKLY [SIPA1L3_Y1376] 0.494
LSFSEYASVQV [SIRPA_Y496_P491L] 1.08
LLREWYVQDPF [SIX3_Y225_L226V_YF] 2.02
LLREWYLPDPY [SIX3_Y225_Q227P] 2.97
LLREWYLPDPF [SIX3_Y225_Q227P_YF] 2.17
QYQLKYSETPF [SIX6OS1_Y129] 0.768
QFQLKYSETPF [SIX6OS1_Y129_YF] 1.03
PTYKHYANSTQ [SLC12A3_Y70_E68K] 0.473
PTFKHYANSTQ [SLC12A3_Y70_E68K_YF] 0.627
PTFENYANSTQ [SLC12A3_Y70_H69N_YF] 0.832
CERFSYYGMKA [SLC15A2_Y60] 1.03
CEHFSYYGMKA [SLC15A2_Y60_R57H] 1.3
ERFSYYGMKAV [SLC15A2_Y61] 1.06
ERFSFYGMKAV [SLC15A2_Y61_YF] 0.674
RKVAQYMLENE [SLC16A6_Y224_E221V] 0.618

These binders were tested against SHP2 C-SH2 domain wild-type in the same assay as above. Conditions: peptide library: pTyr-Var.

Enrichment score, inactive:
AIGCEYSEINI [SIGLEC12_Y588_Y586C] 1.02
AIGFEYSEINI [SIGLEC12_Y588_YF] 0.774
KPAFSYTSSST [SIM1_Y356] 0.628
KTAFSYTSSST [SIM1_Y356_P352T] 0.582
GQSKGYRPKLY [SIPA1L3_Y1376] 0.44
LSFSEYASVQV [SIRPA_Y496_P491L] 1.02
LLREWYVQDPF [SIX3_Y225_L226V_YF] 1.9
LLREWYLPDPY [SIX3_Y225_Q227P] 2.09
LLREWYLPDPF [SIX3_Y225_Q227P_YF] 2.02
QYQLKYSETPF [SIX6OS1_Y129] 0.452
QFQLKYSETPF [SIX6OS1_Y129_YF] 0.859
PTYKHYANSTQ [SLC12A3_Y70_E68K] 0.423
PTFKHYANSTQ [SLC12A3_Y70_E68K_YF] 0.742
PTFENYANSTQ [SLC12A3_Y70_H69N_YF] 0.419
CERFSYYGMKA [SLC15A2_Y60] 0.996
CEHFSYYGMKA [SLC15A2_Y60_R57H] 1.2
ERFSYYGMKAV [SLC15A2_Y61] 0.871
ERFSFYGMKAV [SLC15A2_Y61_YF] 0.878
RKVAQYMLENE [SLC16A6_Y224_E221V] 0.585

The binders below were run against SHP2 N-SH2 domain L43F in the same assay as above. Conditions: peptide library: pTyr-Var.

Enrichment score, inactive:
AIGCEYSEINI [SIGLEC12_Y588_Y586C] 0.984
AIGFEYSEINI [SIGLEC12_Y588_YF] 1.08
KPAFSYTSSST [SIM1_Y356] 0.682
KTAFSYTSSST [SIM1_Y356_P352T] 0.879
GQSKGYRPKLY [SIPA1L3_Y1376] 0.413
LSFSEYASVQV [SIRPA_Y496_P491L] 1.04
LLREWYVQDPF [SIX3_Y225_L226V_YF] 1.9
LLREWYLPDPY [SIX3_Y225_Q227P] 2.06
LLREWYLPDPF [SIX3_Y225_Q227P_YF] 2.19
QYQLKYSETPF [SIX6OS1_Y129] 0.56
QFQLKYSETPF [SIX6OS1_Y129_YF] 0.939
PTYKHYANSTQ [SLC12A3_Y70_E68K] 0.391
PTFKHYANSTQ [SLC12A3_Y70_E68K_YF] 0.825
PTFENYANSTQ [SLC12A3_Y70_H69N_YF] 0.658
CERFSYYGMKA [SLC15A2_Y60] 0.845
CEHFSYYGMKA [SLC15A2_Y60_R57H] 1.06
ERFSYYGMKAV [SLC15A2_Y61] 0.899
ERFSFYGMKAV [SLC15A2_Y61_YF] 0.675
RKVAQYMLENE [SLC16A6_Y224_E221V] 0.697

Each binder was assayed against SHP2 N-SH2 domain T42A in the same assay as above. Conditions: peptide library: pTyr-Var.

Enrichment score, inactive:
AIGCEYSEINI [SIGLEC12_Y588_Y586C] 1.23
AIGFEYSEINI [SIGLEC12_Y588_YF] 0.749
KPAFSYTSSST [SIM1_Y356] 0.637
KTAFSYTSSST [SIM1_Y356_P352T] 0.788
GQSKGYRPKLY [SIPA1L3_Y1376] 0.439
LSFSEYASVQV [SIRPA_Y496_P491L] 1.3
LLREWYVQDPF [SIX3_Y225_L226V_YF] 2.01
LLREWYLPDPY [SIX3_Y225_Q227P] 2.37
LLREWYLPDPF [SIX3_Y225_Q227P_YF] 2.12
QYQLKYSETPF [SIX6OS1_Y129] 0.726
QFQLKYSETPF [SIX6OS1_Y129_YF] 0.925
PTYKHYANSTQ [SLC12A3_Y70_E68K] 0.494
PTFKHYANSTQ [SLC12A3_Y70_E68K_YF] 0.551
PTFENYANSTQ [SLC12A3_Y70_H69N_YF] 0.335
CERFSYYGMKA [SLC15A2_Y60] 0.863
CEHFSYYGMKA [SLC15A2_Y60_R57H] 0.985
ERFSYYGMKAV [SLC15A2_Y61] 0.922
ERFSFYGMKAV [SLC15A2_Y61_YF] 0.72
RKVAQYMLENE [SLC16A6_Y224_E221V] 0.627

Each binder was assayed against SHP2 N-SH2 domain T52S in the same assay as above. Conditions: peptide library: pTyr-Var.

Enrichment score, inactive:
AIGCEYSEINI [SIGLEC12_Y588_Y586C] 1.02
AIGFEYSEINI [SIGLEC12_Y588_YF] 0.84
KPAFSYTSSST [SIM1_Y356] 0.695
KTAFSYTSSST [SIM1_Y356_P352T] 0.74
GQSKGYRPKLY [SIPA1L3_Y1376] 0.696
LSFSEYASVQV [SIRPA_Y496_P491L] 0.852
LLREWYVQDPF [SIX3_Y225_L226V_YF] 2.16
LLREWYLPDPY [SIX3_Y225_Q227P] 2.22
LLREWYLPDPF [SIX3_Y225_Q227P_YF] 2.22
QYQLKYSETPF [SIX6OS1_Y129] 0.665
QFQLKYSETPF [SIX6OS1_Y129_YF] 0.802
PTYKHYANSTQ [SLC12A3_Y70_E68K] 0.689
PTFKHYANSTQ [SLC12A3_Y70_E68K_YF] 0.629
PTFENYANSTQ [SLC12A3_Y70_H69N_YF] 0.674
CERFSYYGMKA [SLC15A2_Y60] 0.848
CEHFSYYGMKA [SLC15A2_Y60_R57H] 1.02
ERFSYYGMKAV [SLC15A2_Y61] 1
ERFSFYGMKAV [SLC15A2_Y61_YF] 0.741
RKVAQYMLENE [SLC16A6_Y224_E221V] 0.584

The binders below were run against SHP2 N-SH2 domain wild-type in the same assay as above. Conditions: peptide library: pTyr-Var.

Enrichment score, inactive:
AIGCEYSEINI [SIGLEC12_Y588_Y586C] 1.65
AIGFEYSEINI [SIGLEC12_Y588_YF] 0.997
KPAFSYTSSST [SIM1_Y356] 0.799
KTAFSYTSSST [SIM1_Y356_P352T] 0.84
GQSKGYRPKLY [SIPA1L3_Y1376] 0.566
LSFSEYASVQV [SIRPA_Y496_P491L] 1.04
LLREWYVQDPF [SIX3_Y225_L226V_YF] 1.77
LLREWYLPDPY [SIX3_Y225_Q227P] 2.33
LLREWYLPDPF [SIX3_Y225_Q227P_YF] 2.05
QYQLKYSETPF [SIX6OS1_Y129] 0.621
QFQLKYSETPF [SIX6OS1_Y129_YF] 1.03
PTYKHYANSTQ [SLC12A3_Y70_E68K] 0.767
PTFKHYANSTQ [SLC12A3_Y70_E68K_YF] 0.786
PTFENYANSTQ [SLC12A3_Y70_H69N_YF] 0.927
CERFSYYGMKA [SLC15A2_Y60] 0.977
CEHFSYYGMKA [SLC15A2_Y60_R57H] 1.04
ERFSYYGMKAV [SLC15A2_Y61] 1.06
ERFSFYGMKAV [SLC15A2_Y61_YF] 0.914
RKVAQYMLENE [SLC16A6_Y224_E221V] 0.631
